Measurements from the supplement of paper PMC10126150.
Values marked as one replicate rest on one cluster of the flow cell; about a third of the high ones do not repeat.

Tested on: ATP
Assay: switch fluorescence ratio, 500 uM ATP over buffer (Cy3 cluster intensity, sum of 5 cycles each) (fold (ratio)); higher = stronger signal-on switching upon ATP binding; sequences stand for … in TCGTCGGCAGCGTCAGATGTGTATAAGAGACAGTTTTTTTTTTTTTTTTTTTTTTTTT…TC
Settings: aptamer strand: ATP DNA aptamer (quencher-CACCTGGGGGAGTATTGCGGAGGAAGG + anchor), 100 nM annealed; ATP concentration: 500 uM; one replicate
Outline: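 Per cluster, summed Cy3 intensity from the target cycles was divided by that from the buffer cycles to give the fluorescence ratio, then averaged per switch-domain sequence. Clusters outside 100-1000 RFU were excluded. The Cy3-labelled switching-strand clusters, on a modified Illumina MiSeq flow-cell, were annealed to 100 nM quencher-labelled ATP aptamer and imaged in selection buffer, then after 15 min with 500 uM ATP at 22 °C, for five cycles with NaOH stripping and re-annealing between them.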
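Further: ATP exposure 15 min at 22 °C before imaging.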

Row | Sequence | switch fluorescence ratio
1 | AGCACGGGGC | 1.05
2 | TAGCTCCGGA | 1.04
3 | ATCTACTCCG | 1.39
4 | GTTGGTGGCA | 1
5 | CCTCGTATGT | 1.07
6 | GGTTACTGTG | 1.04
7 | ATCGTTCTAC | 1
8 | GGCCGTGATC | 1.15
9 | TAAAGCGGCT | 1.06
10 | CACCTCTTCG | 1.07
11 | AACTACGCT | 1.27
12 | CAATAAAGTG | 0.913
13 | CGAAAGCATT | 1.09
14 | GTCAACCTAT | 1.04
15 | ATGAGAACC | 1
16 | ACATGCCGT | 1.15
17 | ATTTTATCGG | 1.03
18 | CGCAGCTCGC | 1.84
19 | GTCAATACCG | 1.08
20 | TTCTGAACA | 1.01
21 | CATGTGGG | 0.992
22 | TTATTTTG | 0.956
23 | GGGCCGTCAC | 1.06
24 | CAGTACCCTG | 1.02
25 | ATTGAACAGT | 0.981
26 | GCCACAATTG | 1.03

Row | Sequence | switch fluorescence ratio
27 | ATCGGAGTGG | 1.02
28 | TAAGGCAAGT | 1.01
29 | TGCCAGCTTC | 1
30 | GGCAGCGAGT | 1.02
31 | AAAGGGCGT | 0.986
32 | ATGGAAGATA | 1.05
33 | AAGGCGATAA | 1.35
34 | TAAGGCCGCC | 0.975
35 | GATGAACTCT | 1.01
36 | ACACTTCTTA | 0.982
37 | CTATCATTTT | 1.02
38 | ATTTCTTGGC | 0.989
39 | TACTGCTATT | 1.13
40 | AGTTTACAT | 1.01
41 | CGTGGCGCTA | 1
42 | GGTGACCGCG | 1.04
43 | TATCCATACC | 1.11
44 | ATATTGGATG | 0.99
45 | ACTTTCGCGA | 1.28
46 | GCAAATGGAT | 1
47 | TTATGGATCC | 0.974
48 | TACGACTAGT | 1.01
49 | GGGTCGGTA | 0.984
50 | CTAGGTGTCC | 0.999
51 | CCGTGTAATG | 1.27
52 | GACGGCACGT | 1.02

Row | Sequence | switch fluorescence ratio
53 | GTTCGCTACC | 1.38
54 | TAACGTGCTA | 0.984
55 | GAGCGAAGAA | 1.03
56 | ATTACGCCTC | 1.11
57 | GAATCGCCTT | 1.01
58 | CCGGTTGAAA | 1.13
59 | GGGGTCCCGA | 1
60 | GCCATGTTAC | 1.1
61 | TGTGTCAGCA | 0.994
62 | GCAACCTCG | 1.1
63 | TAAGAGGGAC | 0.964
64 | AACAAGAGGA | 0.985
65 | CACGAAAATG | 1.03
66 | GGGAACGTT | 1.16
67 | AATTAGGAAG | 0.978
68 | GACGCTCTGC | 1.14
69 | AGTTTAAATT | 1.01
70 | TAGCAGGGAA | 1.01
71 | TTTGTTTATG | 1.01
72 | AATTATGATA | 0.961
73 | TGTGTTCTTT | 0.972
74 | GGCGCAGGGT | 1.03
75 | GAAAATTGGC | 0.987
76 | TTTCCAACGT | 0.98
77 | TACTCTTACA | 1.15
78 | AGCTGGAACG | 0.989

Row | Sequence | switch fluorescence ratio
79 | GATATGCTG | 1.07
80 | CGGCATATGC | 1.19
81 | TGTAAGGTAT | 1.03
82 | GATGGAAGTA | 1.03
83 | TCAACTTGTT | 1.16
84 | GCCATTACAC | 0.983
85 | GTGAGGTGTC | 0.978
86 | GTGAGTCCGG | 0.99
87 | CGAGGGTTCG | 0.984
88 | GCACAACGTT | 1
89 | TGCTAGGACA | 1.05
90 | TAGTAAGATA | 0.989
91 | CGGGGTCGAT | 1.03
92 | CAGAGTTGGG | 0.968
93 | GAGTAGCCGG | 0.916
94 | CCACTTCTCA | 1.01
95 | GCGCAAGG | 1.09
96 | GTAACCACCG | 1.03
97 | ACTTTAATGT | 0.993
98 | CCATTCAGGC | 0.946
99 | ATGAACACAT | 1.02
100 | AGTTAGTTGA | 0.994
101 | GTAAACATTC | 1.15
102 | TATCAAAATG | 1.01
103 | TTGATGCTCG | 1.04
104 | TGTAATAATC | 1.05

Row | Sequence | switch fluorescence ratio
105 | AGCTCGGTGC | 0.994
106 | TCTTGTCGCA | 1.05
107 | TTTAATGATA | 1
108 | GCGGCGGAAA | 1.02
109 | ACGAAATGTG | 1.06
110 | GAGGAAAGTG | 0.966
111 | CATTACCAGT | 0.998
112 | CACGACTATA | 1.14
113 | GACGAGAGGA | 1.05
114 | TGGTGAGACA | 1.07
115 | CAATCTGTCA | 1.01
116 | GGTTGCTCTG | 0.987
117 | GCTACTGATG | 0.994
118 | TGAAGTTCAG | 0.972
119 | CTGTAGTGTC | 1.28
120 | GATCGTTCAC | 1.01
121 | AGGGGGGGCA | 1.03
122 | ATTCGCACT | 1.09
123 | AGGCTCTTCG | 0.992
124 | GACGAAAGGT | 1.02
125 | AACTTGTGT | 1.05
126 | GACGTATTTG | 0.956
127 | CGGCGGAGGG | 1.02
128 | TGCATGTATA | 1.03
129 | CTACATTACG | 1.54
130 | CTATAGTGTT | 1.03

Row | Sequence | switch fluorescence ratio
131 | GGATAAGTGA | 0.975
132 | ACGATGGAGA | 1.09
133 | TAATGCACGG | 1.08
134 | ACTTCCCTTC | 2.21
135 | TCGCAGATTC | 2.91
136 | AGCAGCAGGT | 1.03
137 | GGATACGTTA | 1.05
138 | AAGTCGGGCT | 1.04
139 | TGGCTTTGAT | 0.974
140 | TCTCACCGGG | 1.32
141 | TTTGGATCGG | 1.01
142 | TTGTGAACGT | 1.01
143 | ACGGGACTTA | 1.25
144 | GTGATAGGAG | 1.02
145 | AGCGATCATT | 1.03
146 | AGAACATACC | 1.36
147 | ACTGGTGGGC | 1.03
148 | TCCCGGAGTT | 1.12
149 | ACTATTGGCC | 1
150 | TTAGATTGT | 1.02
151 | GTAGCTTGTT | 0.99
152 | TGGATGTAAG | 1.02
153 | CGGCTGTGCA | 0.998
154 | TTATCTAACT | 0.993
155 | CAAGAAAGC | 0.965
156 | GCAATGGAAC | 1.79

Row | Sequence | switch fluorescence ratio
157 | GTTTATAATA | 1.02
158 | TCGCCGATTG | 1.02
159 | CTTTGGGGG | 0.937
160 | TTAGTACTT | 0.96
161 | GCCATTACTT | 1.03
162 | TGAGGTCAG | 0.964
163 | CACGATCCTT | 1.01
164 | TGTGCCCAAC | 0.98
165 | TACCTTAACG | 1.16
166 | TCGCCTCGGG | 0.952
167 | TGGGAGGCTT | 1
168 | CTCGCGTGTA | 1.04
169 | CATAATAGTG | 1.01
170 | TAGTGTTACG | 1.01
171 | GCTAATTGTA | 0.945
172 | GATATCAGGC | 0.966
173 | TGTGGATCTT | 0.995
174 | TGGACAAGAG | 0.974
175 | AGTTGTGCTT | 0.94
176 | CGTGTACCGT | 0.985
177 | TTATATACCT | 1.04
178 | ATGAGGTTGA | 0.988
179 | GCTGAAGAGG | 0.972
180 | TTAGTTCACC | 1.03
181 | TTTCCGCGTC | 2.72
182 | AGGTAATTTT | 0.992

Row | Sequence | switch fluorescence ratio
183 | CGAAACGGGT | 1.01
184 | CAGGGAAAGG | 0.961
185 | CAAATAGGC | 0.963
186 | TTACCCATGA | 0.967
187 | AATTTGGTGA | 1.03
188 | CAAGGTAGTC | 0.993
189 | TAATCGCTTA | 0.977
190 | CAGGCTGCCG | 0.919
191 | AACCATAAGA | 0.984
192 | CCCGTCGTAA | 1.44
193 | CGGCAAGGAT | 1.11
194 | ACTCTTGGGT | 0.953
195 | AGTGACAGCT | 1.04
196 | TCACTTTGGT | 0.996
197 | AGTGATGCAT | 0.99
198 | ACACTCCAGA | 1.06
199 | GAAGTGTAGA | 1.01
200 | ATATTGCGAT | 1.01
201 | TGAAACGGGT | 0.982
